The chains are these.
T1: UNK ZnF1-3 (human, UniProt Q9C0B0 31-174)
T1 sequence: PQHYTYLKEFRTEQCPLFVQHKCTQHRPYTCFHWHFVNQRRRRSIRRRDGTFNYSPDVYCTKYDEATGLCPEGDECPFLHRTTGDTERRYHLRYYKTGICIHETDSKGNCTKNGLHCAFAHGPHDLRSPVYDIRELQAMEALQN

B1: chr17:21094002:21094003:+_ENSMUSG00000007564_ENSMUST00000007708|mus_mus|FALSE|FALSE (ssRNA)
RNA: GGGAGUUCUACAGUCCGACGAUCCAUGUAGCGAACACGCCAAGACUUGUCCUCAGCAGCCUGUCGCAAGGUGGGCAUCACUAAGGCCUCCAGGUCCUCCUGUGGCAGAAGCUGGGCAAUAUUCACACAUGCCUCCACUGCCAGCAACAGAGGAUUGAGCAUCA
B2: chr15:98867917:98867918:+_ENSMUSG00000043091_ENSMUST00000058914|mus_mus|motif|central (ssRNA)
RNA: GGGAGUUCUACAGUCCGACGAUCAGGGUCACAUUUCACCAUCUGGUUGGCUGGCUCAAAGCAGGCAUUGGUGAUCUCUGCGGCUGUAAGCUGCUCAUGGUAGGCUUUCUCAGCAGAGAUGACAGGGGCAUAAGUGGCCAGAGGCAACAGAGGAUUGAGCAUCA
B3: 135292008_135298915_3170_CDS_ENSG00000155561_ENST00000285968|human|control|control (ssRNA)
RNA: GGGAGUUCUACAGUCCGACGAUCAUAUAUGACCUGGUAACAUAGCUCAGCCAGCUGAGGAGAUUCUCGCACCGCCACUGGGCCUGUUCUCCCUUCCGUUCCUUUCUCCAAGAUGUUUAGAAUGGCGUGAAGGCAUGUCCGAGGCAACAGAGGAUUGAGCAUCA
B4: chr2:171811166:171811167:+_ENSG00000115806_ENST00000234160|hu_mus|FALSE|FALSE (ssRNA)
RNA: GGGAGUUCUACAGUCCGACGAUCUCCUUCUUCAAAGGGGCGUGUAGGUAUUCGGUGCAAAUAACCAUAGCCAAUGCCACAUCCAAGGCUGCCUUCUCCGCCCCAUGCAGAGUUUGGUGUGAUGAUCACUUCUCUGCAGUUGUCCAACAGAGGAUUGAGCAUCA
B5: chr2:42510052:42510053:+_ENSG00000143924_ENST00000318522|hu_hu|motif|central (ssRNA)
RNA: GGGAGUUCUACAGUCCGACGAUCACAGUCUGUAUGGCCCAGGUAGUGUCGCUGAGUUCUCUCCUCAUAAUUAAAUAGUACGGCGGCUGAUGCAAUGAAAUAAACUAUUUUCCCGGUCGGAAGAAGGUAAACAUUAGCUCUACACAACAGAGGAUUGAGCAUCA
B6: chr2:42509997:42509998:+_ENSG00000143924_ENST00000318522|hu_mus|hu_hu_hu_mus_True|28_78 (ssRNA)
RNA: GGGAGUUCUACAGUCCGACGAUCUCGCUGAGUCCUCUCCUCAUAAUUAAACAGGACUACUACUGAUGCGAUAAAAUAAACUAUCUCCCCUGUGGGAAGCAGGUAUACAUUAGCUCUACAGUCCUUUCCUCGAUAACCGUAUACCAACAGAGGAUUGAGCAUCA
B7: chr9:59240146:59240147:-_ENSMUSG00000025234_ENSMUST00000171975|mus_mus|FALSE|FALSE (ssRNA)
RNA: GGGAGUUCUACAGUCCGACGAUCGCGUCAAGGCCACAGAGGAGUAGGCUGGGAUAGGAUCAUUCAUGAACUGAAGCAACUAAACCCUUUAACAGGCCGAGGCAUUUGCUUAGAAUGUGACUUCCUGGAUCUAGAUCCAGAAGCCAACAGAGGAUUGAGCAUCA
B8: 20213982_20218679_917_3pUTR_ENSMUSG00000020142_ENSMUST00000109594|mouse|control|control (ssRNA)
RNA: GGGAGUUCUACAGUCCGACGAUCCUUCUCCCUCGGGGCCUAGCUUCUUUAGAGCCACUCCUAACACCAGGGCAAAAAGGACGAGACCUAAAAUGUUCAUCCCUUCCACAUCUGUUACAACGGGGAUCUUCUCUUUGGUCACGUCAACAGAGGAUUGAGCAUCA
B9: chr1:46159212:46159213:+_ENSG00000159596_ENST00000372025|hu_mus|motif|central (ssRNA)
RNA: GGGAGUUCUACAGUCCGACGAUCUCUGAUCCCUCCCAAGAAAGCUAGGAAACCGGCUCCAUAAGCCAUCUGAGUGAAAGCGGGGACGGGGAUAUAAGACUUUGUUAUUACCAUGAGAAGUGGGGGAGCAGUAAAGGGGAUUAACAACAGAGGAUUGAGCAUCA
B10: chr15:72934872:72934873:-_ENSMUSG00000036698_ENSMUST00000044113|mus_mus|FALSE|FALSE (ssRNA)
RNA: GGGAGUUCUACAGUCCGACGAUCGACAUUUGGUCUGGGGAUACAUUUCAUAUUAAAAGUGUCACAAGUAAGCAUGGGCUACUACAGAAAGUACUUUGCUUCCAGUACUUUGGCCCAUCAGAAAGAAAACCUAUCCUUCAAGGUCAACAGAGGAUUGAGCAUCA
B11: chr1:39494564:39494565:+_ENSG00000168653_ENST00000372967|hu_hu|hu_hu_hu_mus_True|1_108 (ssRNA)
RNA: GGGAGUUCUACAGUCCGACGAUCAUGUGCACGUCUCAUCGUUUUGUACCGAAGCAAGCACUCUUCGAAGUCAUCGAACUCUAUCUUGCACUCCUUUUUCGCCCGGGUCCCACCGAUCCCGUGUGCACACUCUAUCCAUUCUUUCAACAGAGGAUUGAGCAUCA
B12: chr11:75505782:75505783:+_ENSMUSG00000017776_ENSMUST00000017920|mus_hu|FALSE|FALSE (ssRNA)
RNA: GGGAGUUCUACAGUCCGACGAUCCGCCUCCUCCUGCCUGAGAAUCACUCCACUACCCUGCCUGGAUCUGGAAACUGGUUCUAUCAACGUUGUAGUGUCCAAAUAGUGUAUUUUGUAGAAUUCCAGUAAAGCAGGCAAUGAAUCCAACAGAGGAUUGAGCAUCA
B13: chr1:78428562:78428563:-_ENSG00000162613_ENST00000370768|hu_mus|motif|central (ssRNA)
RNA: GGGAGUUCUACAGUCCGACGAUCAAUUGUAAAUAACUUCAUAUUGGGAUCUGCAUUAGGUGGAGGGCUUCUCUGCAGUUCGGUUCUUGCACCAGACUGUUGGCUUAUGCUUUUUAUGGUUUCACCUCCUUUUCCAAUGAUCAGCAACAGAGGAUUGAGCAUCA
B14: 101254855_101254975_2860_3pUTR_ENSMUSG00000042035_ENSMUST00000043983|mouse|control|control (ssRNA)
RNA: GGGAGUUCUACAGUCCGACGAUCGUUUUGAGGAUGAGCUUGCCGUCCGCGUCCGAGGGUUUGUGAACAUACCACAGCACGGCGAAGUGCGAGUUCGGGCUGGUCUGGGACUUGACUGAGCAGUUCAGCUGAAUUGCCCGGUUUCAACAGAGGAUUGAGCAUCA
B15: chr8:30550554:30550555:-_ENSG00000104687_ENST00000414019|hu_hu|FALSE|FALSE (ssRNA)
RNA: GGGAGUUCUACAGUCCGACGAUCGCCAGCGUUCUCCAGCUCCUCCGUGCAGUUGGUGCUGAUCAUUGAAUCAAAACUUCUAAGUACCUUAUCAUGCCGUAUCAUCAGUGAUGUCUUAGAACCCAGGGCUGACAGGAUCCCUGCCAACAGAGGAUUGAGCAUCA
B16: chr2:91455412:91455413:+_ENSMUSG00000040549_ENSMUST00000099716|mus_mus|FALSE|FALSE (ssRNA)
RNA: GGGAGUUCUACAGUCCGACGAUCCAUCAUCCGACACAGGUGGGCCUCCAAUUCUGACUCAUUCUUAUUAUCAAUCAUUGUAAGGUGGUCUAGGAUUUUAGGUCCUUUUAAUUUGCAUAAAGUAUGUAGAAGGGUCUUUAGAGUCAACAGAGGAUUGAGCAUCA
B17: chr2:178096590:178096591:-_ENSG00000116044_ENST00000397062|hu_hu|FALSE|FALSE (ssRNA)
RNA: GGGAGUUCUACAGUCCGACGAUCGAGGAUGCUGCUGAAGGAAUCCUCAAAAGCAUUAAGAAAAUGUGGACUACAGUUACCUACUUCUUUUUCCAUUGAGGGUAUAGAUGAGUAAAAAUGAUAAUUGUCAACUUCUGUCAGUUUCAACAGAGGAUUGAGCAUCA
B18: 48359645_48359765_414_CDS_ENSG00000134291_ENST00000256686|human|control|control (ssRNA)
RNA: GGGAGUUCUACAGUCCGACGAUCUACAAGGGAGUCUUGCUUAUUAAAUGUGACUUUCACCACUUUGAUGCCGUCAUCAUCCACAAGGACUGAAUGCGGAAACAGGAAGAAAACCACCAAACCAGAUGCCAGGAGACAAAGCAGCAACAGAGGAUUGAGCAUCA
B19: chr18:21054979:21054980:+_ENSG00000101782_ENST00000339486|hu_hu|motif|central (ssRNA)
RNA: GGGAGUUCUACAGUCCGACGAUCCUUUACUUCUUUUAAUUUAGGGGCUGGAACUUGAUCAUGGCCAAUAAAAGACAUAACGGAAAUGUGUUUCUUCAGUAGUACAACUGUUGGACAAGGAAUUCCAGCUCUCUGCAUUCUUGCCAACAGAGGAUUGAGCAUCA
B20: chr7:140404665:140404666:+_ENSG00000090266_ENST00000247866|hu_hu|hu_hu_hu_mus_False|98_98 (ssRNA)
RNA: GGGAGUUCUACAGUCCGACGAUCUGCUCCUACUCGUAGGCUGAGUCUACAGUGUCAGUCCUCGUCAUCAGGAGGGAUUCCCAGUUCUUCAUCUGUCCACUGUGAAGGAUCUGGAUAUGAAAAGUGACCCAGCACAGCAUCCGACAACAGAGGAUUGAGCAUCA
B21: 145167808_145167928_2028_3pUTR_ENSMUSG00000030265_ENSMUST00000032399|mouse|control|control (ssRNA)
RNA: GGGAGUUCUACAGUCCGACGAUCCUUAAAGCAUUAGAUAAUUUUAAAUACCUAUCAGAUUUGGGAAGUACUUGGGAAUGUUUGUUUAGCUAGAGUUGAGAGACUAGUCAAACCUGCAUUUUCAAACCUUCUUAAAACCUUGCUCAACAGAGGAUUGAGCAUCA
B22: chr10:126679069:126679070:-_ENSMUSG00000074657_ENSMUST00000099172|mus_mus|FALSE|FALSE (ssRNA)
RNA: GGGAGUUCUACAGUCCGACGAUCGCGGAUCUCUUCCUCAUAUUUCUGCCUUUCCUCAGGUGCGAUGCGUACCACAAUGGAUGAGUUGUCAUUCACAGGGGUCUCCUCGCAGAGCUCAGCUCCCAGAGCUGAGUCCUCUCCAGCCAACAGAGGAUUGAGCAUCA

This is one part of the list.

For this test, the target named is T1, UNK ZnF1-3. The test can be described thus: nsRBNS (natural sequence RNA bind-n-seq); RBNS binding buffer (assumed for nsRBNS): 25 mM Tris pH 7.5, 150 mM KCl, 3 mM MgCl2, 0.01% Triton X-100, 500 ug/ml BSA, 20 U/ml SUPERase-In, 4 C; UNK is unkempt and MSI1 is Musashi-1; names of the RNAs are library labels; protein concentration not given here; high values mean tight binding.
Take B1: the binding signal was 0.963 enrichment R.

The molecule B2 displayed a binding signal of 1.03 enrichment R. In turn, B3 registered a binding signal of 1.11 enrichment R. B4 registered a binding signal of 0.624 enrichment R. For B5 the value was 1.67 enrichment R. Turning to B6, the binding signal was 0.895 enrichment R. B7 registered a binding signal of 1.83 enrichment R. The molecule B8 registered a binding signal of 1.12 enrichment R.

For the molecule B9, the binding signal came to 1.5 enrichment R. As for B10, the binding signal amounted to 0.907 enrichment R. As to B11, the binding signal came out at 0.599 enrichment R.

For B12, the binding signal was determined as 1.08 enrichment R. Regarding B13, the binding signal was determined as 0.475 enrichment R. In turn, B14 registered a binding signal of 1.02 enrichment R.

With B15, the binding signal was found to be 0.844 enrichment R. The figure for B16 is 1.1 enrichment R; for B17 it is 1.26 enrichment R. For B18 the value was 1.12 enrichment R; for B19, 0.944 enrichment R. The figure for B20 is 0.914 enrichment R; for B21 it is 0.518 enrichment R; for B22 it is 0.941 enrichment R.

The values above are taken from paper PMC12136788.
